Here are results for 24 sequences from the supplement of paper PMC11417369.

The other results are listed elsewhere or left out.

This test has as its system PF3D7_0420300 AP2 domain 1 (GST-tagged). Description: gcPBM binding intensity (ln(normalized median fluorescence intensity)); higher = stronger DNA binding. The method, boiled down: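 GST-fused DNA-binding domains of P. falciparum, expressed in E. coli, were applied at about 25 μg on average for 1 h to an Agilent 4 × 180k array of primer-extended double-stranded 36-bp intergenic genomic probes and negative controls. Binding intensity is the highest Masliner-normalised natural-log median intensity across replicate spots of either probe orientation, measured with Alexa488 anti-GST antibody and a 488 nm scan.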
“AAAAACGATTAATGTGTACACACATAGTTATAAACA [CACACA_site8659]”: the “gcPBM binding intensity (ln)” value is 9.74.

“AGGATAACATACAAAAGTACATAAAACTAAAAAAAC [XGTACX_site26]”: the “gcPBM binding intensity (ln)” value worked out at 9.72.

As to “CATACACCCGGACACACACACACACCCATATATAAT [CACACA_site4494]”, the “gcPBM binding intensity (ln)” value amounted to 10.3.

“TTGTTTTTTTCTTTTTGTACATATACAACATACATA [XGTACX_site8996]”: the “gcPBM binding intensity (ln)” value turned out to be 9.46.

Regarding “AAACAATTTATGTGTAGTACATGTTGGAGATAATTT [XGTACX_site6000]”, the “gcPBM binding intensity (ln)” value was determined as 9.35.

Turning to “GAAAATATATTATTTACACACATGTTCAAATTAAAA [CACACA_site3761]”, the “gcPBM binding intensity (ln)” value was 9.27.

With “TATTAAATATAAGTCACACATAATTTTTCGTCCTTT [CACACA_site5065]”, the “gcPBM binding intensity (ln)” value is 9.24.

For “CTTTTTATTAAATATGCATGTGTATCAACAGTGAAT [TGCATGCA_site447]”, the “gcPBM binding intensity (ln)” value stood at 9.29.

“GTTATACGCATATATACACACATATGTAAATATATA [CACACA_site3280]”: the “gcPBM binding intensity (ln)” value is 9.48.

Turning to “TAAAAAAAATAGCATACACACATATATACCTATATA [CACACA_site4535]”, the “gcPBM binding intensity (ln)” value came out at 9.72.

For “ATCATAACACCTCCACACAAATAAATATAACATATA [XGTACX_negctrl_site269]”, the “gcPBM binding intensity (ln)” value is 9.39.

“ATGAGTGCACAAATATATATATATATATATATATAT [CACACA_negctrl_site404]”: the “gcPBM binding intensity (ln)” value turned out to be 9.63.

As to “ATATAAAAAAAAAAAAAAAAATATATATATATATAT [GTGCAC_negctrl_site251]”, the “gcPBM binding intensity (ln)” value was determined as 8.77.

Consider “TTGGTTTGAAAGAAAGAAATTATTAAAAAGGAAATA [CACACA_negctrl_site26]”, for which the “gcPBM binding intensity (ln)” value was 8.95.

As to “GATATACTGTCAATTCTACACACCATAGGGGGAGCA [CACACA_site8562]”, the “gcPBM binding intensity (ln)” value is 9.93.

“ATATATATATATACAACACACATGTAATATATAAAT [CACACA_site3294]”: the “gcPBM binding intensity (ln)” value came out at 9.57.

Turning to “TACTGATCCACATTTATACACACCTCGGTTTGTAGA [CACACA_site417]”, the “gcPBM binding intensity (ln)” value came to 9.42.

Consider “TATAGATTCTTTTAATGTACATGTCTTTTCATTTCC [XGTACX_site8348]”, for which the “gcPBM binding intensity (ln)” value worked out at 9.22.

On to “CCTTTATACATTTTCTGTACTGATATATATTAAAAA [XGTACX_site8467]”, for which the “gcPBM binding intensity (ln)” value came out at 9.22.

Consider “TTGTGTTCTTATTTTTACACCGAAAAATATTAAAAG [CACACA_negctrl_site535]”, for which the “gcPBM binding intensity (ln)” value is 8.99.

“GTATGAAAAAAAATATGTACACATATATATTTGGTA [XGTACX_site6309]”: the “gcPBM binding intensity (ln)” value is 9.26.

In the case of “TAGAAATATAATTAATGTACATATGATATTATATAT [XGTACX_site923]”, the “gcPBM binding intensity (ln)” value amounted to 9.25.

“ATTTATTTATATAGAAGTACATATTTATTTATATAT [XGTACX_site6283]”: the “gcPBM binding intensity (ln)” value came to 9.05.

In the case of “CTTTTTTAAATTATTGCACACAAAAATGAAAGGAAA [CACACA_site8412]”, the “gcPBM binding intensity (ln)” value was 9.15.
